In the supplement of paper PMC10126150:
Values marked as one replicate rest on one cluster of the flow cell; about a third of the high ones do not repeat.

Tested on: ATP
Experiment: switch fluorescence ratio, 500 uM ATP over buffer (Cy3 cluster intensity, sum of 5 cycles each) (fold (ratio)); higher = stronger signal-on switching upon ATP binding; sequences stand for … in TCGTCGGCAGCGTCAGATGTGTATAAGAGACAGTTTTTTTTTTTTTTTTTTTTTTTTT…TC
Conditions: aptamer strand: ATP DNA aptamer (quencher-CACCTGGGGGAGTATTGCGGAGGAAGG + anchor), 100 nM annealed; ATP concentration: 500 uM; one replicate
Procedure, shortened: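 Cy3-labelled switching-strand clusters on a modified Illumina MiSeq flow-cell were annealed to 100 nM quencher-labelled ATP aptamer, imaged in selection buffer, then imaged after 15 min with 500 uM ATP at 22 °C. Five buffer/ATP cycles ran, with NaOH stripping and re-annealing between them. The fluorescence ratio is summed target-cycle over summed buffer-cycle Cy3 intensity per cluster, averaged per switch-domain sequence. Clusters outside 100-1000 RFU were excluded.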
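Further: ATP exposure 15 min at 22 °C before imaging.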

GCAAGCCACG
switch fluorescence ratio: 1.1

CGCTCACACT
switch fluorescence ratio: 1.09

TGCCCTCTAG
switch fluorescence ratio: 1.02

TGTTTTAACG
switch fluorescence ratio: 0.992

CCGACGGGGA
switch fluorescence ratio: 4.23

GATCCGCTCA
switch fluorescence ratio: 1.75

TGCGAAGTAC
switch fluorescence ratio: 1.57

TGACCAGCAC
switch fluorescence ratio: 1.2

GTCGTAATTC
switch fluorescence ratio: 1.18

CCGACTTAGG
switch fluorescence ratio: 1.05

ATGGAAATCT
switch fluorescence ratio: 1.08

TATACCGTGC
switch fluorescence ratio: 1.12

GGTGCGTTAT
switch fluorescence ratio: 2.23

TGAGTTAGCG
switch fluorescence ratio: 1.04

TGAGTGTGAT
switch fluorescence ratio: 0.998

CCCGTTTAAC
switch fluorescence ratio: 1.27

CCGTCCCCTA
switch fluorescence ratio: 1.29

TTCTTTTCGG
switch fluorescence ratio: 0.972

TCAGTATTAA
switch fluorescence ratio: 0.985

CTATGTATTA
switch fluorescence ratio: 1.05

GATAGTAAAG
switch fluorescence ratio: 1.02

GAGAGATACA
switch fluorescence ratio: 1.01

ATCGCCGTGA
switch fluorescence ratio: 1.05

CGAAAAACA
switch fluorescence ratio: 1.02

CTGTTATGGC
switch fluorescence ratio: 1.14

CCATTCTAAG
switch fluorescence ratio: 1.01

CTCAAGAGGT
switch fluorescence ratio: 1.02

ATCTCTACAT
switch fluorescence ratio: 1.02

GATCCTGCT
switch fluorescence ratio: 0.987

GAGTGACACA
switch fluorescence ratio: 0.991

CGTCAACCTG
switch fluorescence ratio: 1.03

ACATGTTGCA
switch fluorescence ratio: 1.06

AAACCCGGTC
switch fluorescence ratio: 1.04

AACAAGGTCT
switch fluorescence ratio: 1.01

GTTTCAGACC
switch fluorescence ratio: 1.01

TAGCAGTACA
switch fluorescence ratio: 1.53

TGGATCGCAT
switch fluorescence ratio: 1.09

CATTGTCAGT
switch fluorescence ratio: 0.992

ATGAAGTTCC
switch fluorescence ratio: 1.06

AAGGTCCTTG
switch fluorescence ratio: 1.01

TAGCCAACTG
switch fluorescence ratio: 0.966

TGGCTTGTGG
switch fluorescence ratio: 0.971

GACAGTCACA
switch fluorescence ratio: 1.01

GCTTAACAAC
switch fluorescence ratio: 1.01

TCGGTCACTG
switch fluorescence ratio: 1.02

GCTTCAGCGG
switch fluorescence ratio: 0.985

ACCGACTTAA
switch fluorescence ratio: 1.32

ACGTGTGCG
switch fluorescence ratio: 0.89

GGTGCCGTGG
switch fluorescence ratio: 0.99

TAAGGCAAGA
switch fluorescence ratio: 1.09

TCACCCGACT
switch fluorescence ratio: 1.02

GTGTTCGGTC
switch fluorescence ratio: 0.96

TAATCGGAGA
switch fluorescence ratio: 0.976

TTCCGGGAG
switch fluorescence ratio: 1.11

TGGGGCAGA
switch fluorescence ratio: 0.993

CGGGGCATGT
switch fluorescence ratio: 0.978

TCATCGGTAT
switch fluorescence ratio: 1

GGGGACCCAG
switch fluorescence ratio: 0.991

GGGTAGTGGC
switch fluorescence ratio: 1.08

AAATTGCG
switch fluorescence ratio: 1.02

TCCTGGAAGG
switch fluorescence ratio: 1

TGATCGCTGC
switch fluorescence ratio: 1.49

ATGAATTGA
switch fluorescence ratio: 0.952

GTCGGCTTCA
switch fluorescence ratio: 1.03

AGCGGAAACT
switch fluorescence ratio: 1.01

TGACCCAGTA
switch fluorescence ratio: 1

TGTGGGTCCA
switch fluorescence ratio: 1.01

TTCGCCCTTG
switch fluorescence ratio: 1.01

CGGGACGGGT
switch fluorescence ratio: 1.04

AAAAGGATGT
switch fluorescence ratio: 1.02

GGCTAAACGG
switch fluorescence ratio: 0.974

TCTGGCTCGC
switch fluorescence ratio: 1.05

GGTCCCAGGT
switch fluorescence ratio: 3.38

TAGAGGCTTT
switch fluorescence ratio: 1

TCGTTCCATA
switch fluorescence ratio: 1.03

AAAGTTGAAA
switch fluorescence ratio: 0.979

TTCTTTGTAT
switch fluorescence ratio: 1

TCGGGTTTGA
switch fluorescence ratio: 1

ATTTTGTCCG
switch fluorescence ratio: 1.02

GCATGGCACT
switch fluorescence ratio: 1

TGTGTTAAGC
switch fluorescence ratio: 1.01

TGAGAAGTCG
switch fluorescence ratio: 0.908

GTTAGATCAA
switch fluorescence ratio: 0.983

TTGATGAGGC
switch fluorescence ratio: 1.05

CTTAAGCTTG
switch fluorescence ratio: 1.03

CCATATCGAT
switch fluorescence ratio: 1.04

TGTCTGAGGT
switch fluorescence ratio: 0.971

ATGTACA
switch fluorescence ratio: 1

TGCATCTGCC
switch fluorescence ratio: 0.965

CTAACAGGCC
switch fluorescence ratio: 1.01

ATATCTCTGT
switch fluorescence ratio: 0.989

TGACACATTA
switch fluorescence ratio: 1.08

TCGTCGTTAC
switch fluorescence ratio: 1.62

GCCTGGAGAG
switch fluorescence ratio: 0.968

GTACGCTTTG
switch fluorescence ratio: 1.03

CGAACTTAAG
switch fluorescence ratio: 0.94

TGCTCGGCGG
switch fluorescence ratio: 1.03

GCACCTACTA
switch fluorescence ratio: 1.32

TTACTGGAGC
switch fluorescence ratio: 0.985

ATAAGTCGGT
switch fluorescence ratio: 1

CTGGACGGCC
switch fluorescence ratio: 0.972
